SMILES strings stand for the structures. The whole screen tested about 150,000 compounds, of which about 540 (0.36%) showed an effect of 50% or more. The list shows a part of the results.

As a reminder, the % Inhibition is the change of the read-out against control, counted positive when it falls.

For the experiment, the system named is Plasmodium falciparum. As to the kind of experiment: Primary screen in NF54 nanoGlo assay, in single point, at 2uM, 72h; a lower Z score goes with more inhibition. In kind it is functional, Erythrocyte. The following applies: timepoint 72 hour.
Regarding `Cc1ccccc1C(=O)N1CCC2(CC1)OC[C@@H](C(=O)NCc1ccccn1)N2C(=O)c1cccc(F)c1`, the “% Inhibition” value was -6% and the Z score turned out to be 0.8.

With `O=C(NCc1cccnc1N1CCN(c2ccccn2)CC1)c1ccccn1`, the “% Inhibition” value is recorded as -11% and the Z score came out at 1.62.

For the molecule `CCCC[C@H](CC)CC(=O)Nc1nnn[nH]1`, the “% Inhibition” value is given as -5% and the Z score stood at 0.58.

As to `CCNC(=O)C1(CNCc2c(C)nc3scc(C4CC4)n23)CCC1`, the “% Inhibition” value is on record as -9% and the Z score worked out at 1.19.

For `COCCn1ccc2cc(C(=O)N3CCc4nc[nH]c4C3)ccc21`, the “% Inhibition” value was found to be 1% and the Z score is -0.14.

Take `O=C(NC1CCN(C2CC2)CC1)N1CCC2(CCCCC2)C1`: the “% Inhibition” value worked out at 31% and the Z score was -3.54.

Regarding `Cc1cc(Cl)ccc1C(=O)NC[C@H](C)c1nncn1C`, the “% Inhibition” value was -14% and the Z score is given as 1.46.

As to `Cn1ncnc1[C@@H]1CCCN1C(=O)C1CCCCC1`, the “% Inhibition” value was -11% and the Z score is on record as 1.59.

Take `Cc1ccc(C(=O)N2CCN(C(=O)C3CCC3)[C@@H]3CS(=O)(=O)C[C@@H]32)cc1O`: the “% Inhibition” value was found to be 3% and the Z score is reported as -0.45.

Turning to `O=C(Cc1ccc(S(=O)(=O)N2CCOCC2)s1)N1CCCc2ccccc21`, the “% Inhibition” value is listed as -12% and the Z score came to 1.05.

On to `CCN(CC)c1ccc(C(=O)Nn2cc(C(=O)NC3CCCCC3)c3ccccc3c2=O)cc1`, for which the “% Inhibition” value was -9% and the Z score turned out to be 1.45.

On to `COc1ccc2c(c1)CCc1c(C(=O)NCCN3CCN(c4ccccc4F)CC3)n[nH]c1-2`, for which the “% Inhibition” value is recorded as -7% and the Z score turned out to be 1.13.

With `Cc1noc2nc(C3CC3)cc(C(=O)N3CCN(c4nccs4)CC3)c12`, the “% Inhibition” value is listed as -3% and the Z score is 0.52.

As to `Cc1ccc(-c2ccc(=O)n(Cc3noc(C(=O)NCCc4ccccc4)n3)n2)cc1`, the “% Inhibition” value is listed as -15% and the Z score is 1.84.

With `COc1c(C(=O)OCC2(CC#N)CC2)c(C)nn1C`, the “% Inhibition” value is on record as -10% and the Z score stood at 1.

As for `OC1CN(c2ncc(-c3ccccc3)s2)C1`, the “% Inhibition” value is listed as -8% and the Z score turned out to be 1.48.

With `CC(C)CNC(=O)N1CC[C@H](N(CCN2CCOCC2)S(C)(=O)=O)C1`, the “% Inhibition” value is on record as -4% and the Z score amounted to 0.7.

Consider `CN1CCC2CC[C@H](C1)N2C(=O)Nc1cccc(C#N)c1`, for which the “% Inhibition” value came to 2% and the Z score was -0.19.

As for `CCn1ncc(-c2cc(C(F)F)nc(N3CCC[C@H](C)C3)n2)c1C`, the “% Inhibition” value amounted to 27% and the Z score was -3.07.

On to `Cc1nc2c(c(C(F)(F)F)n1)C[C@@H](C(=O)Nc1cccc(CN(C)C)c1)CC2`, for which the “% Inhibition” value amounted to 1% and the Z score was -0.07.

Regarding `CCN(CC)Cc1cc(-c2nc(C)n[nH]2)c(C)o1`, the “% Inhibition” value was determined as 20% and the Z score is on record as -2.51.

For `Nc1ncnc(NCCc2ccccc2)n1`, the “% Inhibition” value was determined as 2% and the Z score is reported as -0.24.

As for `CCCC[C@@]1(O)COC2(CN(C(=O)c3cc(C)nn3C)C2)C1`, the “% Inhibition” value was -10% and the Z score is given as 1.57.

Turning to `CN(C)c1ccc(NC(=O)C(=O)N2CCC[C@@H]2Cn2ccnc2)cc1`, the “% Inhibition” value is listed as -12% and the Z score is on record as 1.55.

As to `O[C@H]1CCCN(c2ccnc(-c3cnc4ccccc4c3)n2)C1`, the “% Inhibition” value was 1% and the Z score is listed as -0.18.

Regarding `Cc1sc2ncnc(N3CCCCCC3)c2c1C(=O)Nc1ccc(F)c(F)c1`, the “% Inhibition” value came out at 4% and the Z score is on record as -0.5.

Turning to `CC(C)(NC(=O)Nc1cccc(Cl)c1)C(=O)N1CCC(O)CC1`, the “% Inhibition” value is -5% and the Z score was 0.6.

`CS(=O)(=O)N1CCC([C@H]2CCN(Cc3ccc(F)cc3F)C2)CC1`: the “% Inhibition” value is 0% and the Z score is listed as 0.05.

On to `COc1ccc(C=C(C)CN[C@@H](C)c2cnn(C)c2)cc1`, for which the “% Inhibition” value is recorded as -6% and the Z score was found to be 0.8.

In the case of `CC(C)(c1nnn(CC2(O)CCCCC2)n1)S(C)(=O)=O`, the “% Inhibition” value was -3% and the Z score is listed as 0.61.

`Cc1cccc(-c2nc3nc(C)cc(N(C)Cc4ccccc4)n3n2)c1`: the “% Inhibition” value is reported as -23% and the Z score was found to be 4.1.

As for `Cc1ccnc(NS(=O)(=O)c2ccc(NC(=O)Cc3cccs3)cc2)n1`, the “% Inhibition” value is recorded as -4% and the Z score was determined as 0.6.

Turning to `O=C1CC[C@@H]2CN(c3nccs3)CC[C@@H]2N1CCCn1ccnc1`, the “% Inhibition” value is -13% and the Z score was determined as 2.26.

On to `CC1(C)[C@@H](NS(=O)(=O)C2COC2)[C@@H]1c1ccccc1`, for which the “% Inhibition” value is 2% and the Z score was -0.23.

Consider `Cc1cc(-c2ccccn2)nn1CCO`, for which the “% Inhibition” value turned out to be 4% and the Z score is on record as -0.52.

`CCCc1nc(C)c(CN2CC[C@H](CS(C)(=O)=O)C2)o1`: the “% Inhibition” value came out at 2% and the Z score is reported as -0.42.

In the case of `Cc1ccoc1C(=O)N1CCC(Oc2ccc(F)cc2)(C(=O)O)CC1`, the “% Inhibition” value is given as -17% and the Z score amounted to 2.83.

Regarding `CC(C)CN(Cc1ccccc1OS(=O)(=O)c1ccc(F)cc1)C(=O)C1CCC1`, the “% Inhibition” value is -9% and the Z score turned out to be 0.9.

`CCOC(=O)C1CCCN(C2CCN(C(=O)CN3Cc4ccc(OC)cc4OC(C)C3)CC2)C1` (stereo unspecified): the “% Inhibition” value was determined as 8% and the Z score is -1.04.

Consider `Cc1nc[nH]c1CN1C[C@H]2CC[C@@H](C1)N(Cc1ccc3c(c1)OCCO3)C2`, for which the “% Inhibition” value is reported as -1% and the Z score amounted to 0.11.

With `O=C(Nc1cccc(-c2nnco2)c1)N[C@H]1CCS(=O)(=O)c2ccc(Cl)cc21`, the “% Inhibition” value is recorded as -8% and the Z score came out at 1.41.

`CC(NCC1CCCS1(=O)=O)c1cc2cnccc2o1` (stereo unspecified): the “% Inhibition” value is -13% and the Z score is 2.

With `O=C(CCc1c(F)cccc1Cl)NC1CCC2OCCOC2C1` (stereo unspecified), the “% Inhibition” value was -3% and the Z score came out at 0.66.

Values taken from ChEMBL document CHEMBL4888484, “Replenishing the malaria drug discovery pipeline: Screening and hit evaluation of the MMV Hit Generation Library 1 (HGL1) against asexual blood stage Plasmodium falciparum ,using a nano luciferase reporter read-out” (2022).
